Results: the supplement of paper PMC10126150
Values marked as one replicate rest on one cluster of the flow cell; about a third of the high ones do not repeat.
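Also: ATP exposure 15 min at 22 °C before imaging.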

These sequences were tested on ATP (assay: switch fluorescence ratio, 500 uM ATP over buffer (Cy3 cluster intensity, sum of 5 cycles each) (fold (ratio)); higher = stronger signal-on switching upon ATP binding; sequences stand for … in TCGTCGGCAGCGTCAGATGTGTATAAGAGACAGTTTTTTTTTTTTTTTTTTTTTTTTT…TC). Conditions: aptamer strand: ATP DNA aptamer (quencher-CACCTGGGGGAGTATTGCGGAGGAAGG + anchor), 100 nM annealed; ATP concentration: 500 uM; one replicate.
Outline: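 Between each of five buffer/ATP cycles, the flow-cell was stripped with NaOH and re-annealed. Each cycle imaged Cy3-labelled switching-strand clusters, annealed to 100 nM quencher-labelled ATP aptamer on a modified Illumina MiSeq flow-cell, first in selection buffer and then after 15 min with 500 uM ATP at 22 °C. The fluorescence ratio is summed target-cycle over summed buffer-cycle Cy3 intensity per cluster, averaged per switch-domain sequence, with clusters outside 100-1000 RFU excluded.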
CCCCGACCCG gave a switch fluorescence ratio of 1.09.
Sequence CCCCGACGGT has a switch fluorescence ratio of 1.29.
CCCCGACTCA gave a switch fluorescence ratio of 1.57.
Sequence CCCCGGGCG has a switch fluorescence ratio of 1.08.
CCCCGGTTC showed a switch fluorescence ratio of 2.02.
Work on CCCCGTGCAG yielded a switch fluorescence ratio of 1.09.
CCCCGTTGGG gave a switch fluorescence ratio of 0.946.
CCCCTATCCC gave a switch fluorescence ratio of 1.05.
For CCCCTCTAGG, the switch fluorescence ratio was 1.24.
Sequence CCCCTGAAGG has a switch fluorescence ratio of 1.07.
CCCCTTAGC was tested, and the switch fluorescence ratio was 1.09.
CCCCTTATGA showed a switch fluorescence ratio of 1.
With CCCCTTATTA the switch fluorescence ratio was 1.03.
CCCGAAAAAA gave a switch fluorescence ratio of 3.24.
CCCGACCTGG was tested, and the switch fluorescence ratio was 1.01.
Work on CCCGAGCACT yielded a switch fluorescence ratio of 3.
Sequence CCCGAGCTTC has a switch fluorescence ratio of 1.79.
For CCCGATTCAT, the switch fluorescence ratio was 0.998.
Work on CCCGCAGGTA yielded a switch fluorescence ratio of 1.91.
CCCGCATAGG gave a switch fluorescence ratio of 3.27.
Sequence CCCGCCCGCC has a switch fluorescence ratio of 2.83.
For CCCGCGGATA, the switch fluorescence ratio was 3.4.
CCCGGAGAAA was tested, and the switch fluorescence ratio was 1.59.
In the case of CCCGGAGTTA, the switch fluorescence ratio is reported as 1.34.
CCCGGATGCC showed a switch fluorescence ratio of 0.967.
Work on CCCGGATTTC yielded a switch fluorescence ratio of 1.1.
Sequence CCCGGGGGCC has a switch fluorescence ratio of 1.03.
In the case of CCCGGTCACC, the switch fluorescence ratio is reported as 1.05.
With CCCGGTTGA the switch fluorescence ratio was 1.03.
Work on CCCGTACCCA yielded a switch fluorescence ratio of 1.08.
CCCGTATTTG was tested, and the switch fluorescence ratio was 1.01.
With CCCGTCGCAT the switch fluorescence ratio was 2.74.
CCCGTGGTTG was tested, and the switch fluorescence ratio was 1.06.
With CCCGTTAAA the switch fluorescence ratio was 1.01.
CCCGTTATAG gave a switch fluorescence ratio of 2.79.
CCCGTTTATG was tested, and the switch fluorescence ratio was 1.06.
In the case of CCCGTTTGCA, the switch fluorescence ratio is reported as 1.03.
For CCCTACACGA, the switch fluorescence ratio was 1.26.
In the case of CCCTAGAGCG, the switch fluorescence ratio is reported as 1.11.
CCCTAGTACG gave a switch fluorescence ratio of 1.04.
CCCTATCCTT gave a switch fluorescence ratio of 1.1.
For CCCTGGATTT, the switch fluorescence ratio was 0.982.
Work on CCCTGGGAAT yielded a switch fluorescence ratio of 0.984.
Sequence CCCTGGGTGT has a switch fluorescence ratio of 3.91.
In the case of CCCTGGTTAG, the switch fluorescence ratio is reported as 1.07.
In the case of CCCTTAAGCC, the switch fluorescence ratio is reported as 1.19.
Sequence CCCTTAGAAG has a switch fluorescence ratio of 0.961.
In the case of CCCTTATAAT, the switch fluorescence ratio is reported as 1.09.
Sequence CCCTTCTAAC has a switch fluorescence ratio of 1.02.
CCCTTGGCGG gave a switch fluorescence ratio of 1.02.
In the case of CCCTTGTTGG, the switch fluorescence ratio is reported as 0.991.
In the case of CCCTTTGTC, the switch fluorescence ratio is reported as 1.03.
CCGAAACAGT was tested, and the switch fluorescence ratio was 1.95.
With CCGAAACCTT the switch fluorescence ratio was 3.75.
Work on CCGAAGAAGG yielded a switch fluorescence ratio of 1.64.
CCGAAGGTGA gave a switch fluorescence ratio of 1.35.
CCGAATGCGG was tested, and the switch fluorescence ratio was 1.03.
CCGAATTCGC gave a switch fluorescence ratio of 1.06.
CCGACAGGCT gave a switch fluorescence ratio of 1.25.
Work on CCGACCGGTA yielded a switch fluorescence ratio of 2.71.
For CCGACCGGTC, the switch fluorescence ratio was 1.33.
In the case of CCGAGCTGG, the switch fluorescence ratio is reported as 2.23.
With CCGAGTCATA the switch fluorescence ratio was 4.19.
In the case of CCGAGTCATG, the switch fluorescence ratio is reported as 1.91.
Work on CCGAGTTACT yielded a switch fluorescence ratio of 2.58.
Work on CCGATATCCA yielded a switch fluorescence ratio of 0.997.
CCGATCTAAC gave a switch fluorescence ratio of 2.89.
CCGATGATCT gave a switch fluorescence ratio of 1.11.
With CCGATGGCGG the switch fluorescence ratio was 1.55.
Sequence CCGATTACTA has a switch fluorescence ratio of 1.11.
In the case of CCGATTCTCC, the switch fluorescence ratio is reported as 2.22.
With CCGATTGCGG the switch fluorescence ratio was 1.35.
CCGCACCTT was tested, and the switch fluorescence ratio was 2.07.
CCGCAGATCA showed a switch fluorescence ratio of 2.44.
In the case of CCGCAGTAAG, the switch fluorescence ratio is reported as 6.89.
CCGCCCGGGA showed a switch fluorescence ratio of 4.88.
In the case of CCGCCGTTT, the switch fluorescence ratio is reported as 1.49.
CCGCCTAATA was tested, and the switch fluorescence ratio was 5.06.
CCGCCTCAGG was tested, and the switch fluorescence ratio was 3.72.
For CCGCGAAAGG, the switch fluorescence ratio was 1.66.
Sequence CCGCGAAGTC has a switch fluorescence ratio of 4.05.
CCGCGGTCAA gave a switch fluorescence ratio of 2.53.
Work on CCGCGTAATG yielded a switch fluorescence ratio of 3.28.
With CCGCGTCCTG the switch fluorescence ratio was 1.17.
In the case of CCGCTAACCT, the switch fluorescence ratio is reported as 2.81.
CCGCTACAGG was tested, and the switch fluorescence ratio was 2.49.
Work on CCGCTAGGGT yielded a switch fluorescence ratio of 1.09.
CCGCTATCCT gave a switch fluorescence ratio of 4.55.
CCGCTCTTGG gave a switch fluorescence ratio of 1.2.
For CCGCTCTTTG, the switch fluorescence ratio was 1.07.
CCGCTGGGGA showed a switch fluorescence ratio of 1.7.
In the case of CCGCTGTTAT, the switch fluorescence ratio is reported as 2.72.
CCGCTTGGCC was tested, and the switch fluorescence ratio was 2.03.
With CCGCTTTGGG the switch fluorescence ratio was 1.24.
CCGGAAGATA was tested, and the switch fluorescence ratio was 1.05.
For CCGGAATATG, the switch fluorescence ratio was 2.61.
Work on CCGGAATTGC yielded a switch fluorescence ratio of 5.45.
CCGGAGACGA gave a switch fluorescence ratio of 4.4.
With CCGGAGAGAT the switch fluorescence ratio was 3.85.
In the case of CCGGAGTGTT, the switch fluorescence ratio is reported as 5.05.
CCGGATTTAA showed a switch fluorescence ratio of 1.05.
Sequence CCGGCAAATA has a switch fluorescence ratio of 1.53.
With CCGGCACCGG the switch fluorescence ratio was 0.991.
For CCGGCAGAG, the switch fluorescence ratio was 0.976.
Sequence CCGGCAGCTT has a switch fluorescence ratio of 4.23.
CCGGCGCGGA gave a switch fluorescence ratio of 1.59.
Work on CCGGCGTAGG yielded a switch fluorescence ratio of 1.08.
For CCGGCGTAGT, the switch fluorescence ratio was 1.33.
Sequence CCGGCTAAG has a switch fluorescence ratio of 1.08.
In the case of CCGGCTCAGA, the switch fluorescence ratio is reported as 1.07.
Sequence CCGGGAGTTT has a switch fluorescence ratio of 1.03.
CCGGGCACCA was tested, and the switch fluorescence ratio was 1.07.
CCGGGCAGCT was tested, and the switch fluorescence ratio was 1.43.
Sequence CCGGGCCCCG has a switch fluorescence ratio of 1.53.
With CCGGGGAGCG the switch fluorescence ratio was 0.983.
CCGGGGGGA gave a switch fluorescence ratio of 1.12.
Sequence CCGGGTAACT has a switch fluorescence ratio of 1.1.
Work on CCGGGTACGC yielded a switch fluorescence ratio of 1.33.
Sequence CCGGGTCAAA has a switch fluorescence ratio of 1.51.
CCGGGTCCGG was tested, and the switch fluorescence ratio was 0.978.
CCGGGTCGTT showed a switch fluorescence ratio of 0.998.
CCGGTAGATT showed a switch fluorescence ratio of 1.06.
In the case of CCGGTCACTC, the switch fluorescence ratio is reported as 1.62.
Sequence CCGGTCCATA has a switch fluorescence ratio of 1.15.
CCGGTGGGAA was tested, and the switch fluorescence ratio was 0.979.
Sequence CCGGTTACCT has a switch fluorescence ratio of 1.2.
Work on CCGGTTAGTT yielded a switch fluorescence ratio of 1.01.
Work on CCGGTTTTAA yielded a switch fluorescence ratio of 1.01.
For CCGTAATGGA, the switch fluorescence ratio was 1.21.
With CCGTACGGCA the switch fluorescence ratio was 1.09.
In the case of CCGTAGAAGG, the switch fluorescence ratio is reported as 1.53.
In the case of CCGTAGTGCC, the switch fluorescence ratio is reported as 1.41.
Work on CCGTATATAG yielded a switch fluorescence ratio of 1.29.
For CCGTATGGCA, the switch fluorescence ratio was 1.03.
With CCGTATTTA the switch fluorescence ratio was 1.
Sequence CCGTCAGTGT has a switch fluorescence ratio of 1.19.
Sequence CCGTCCGGGG has a switch fluorescence ratio of 2.12.
Work on CCGTCCTCTA yielded a switch fluorescence ratio of 1.31.
With CCGTCCTGGC the switch fluorescence ratio was 0.865.
CCGTCGGACG gave a switch fluorescence ratio of 1.02.
CCGTCTGAC was tested, and the switch fluorescence ratio was 1.45.
Sequence CCGTGACTAA has a switch fluorescence ratio of 1.21.
For CCGTGCCCTC, the switch fluorescence ratio was 1.22.
Sequence CCGTGGAGGT has a switch fluorescence ratio of 1.01.
Sequence CCGTGTCAGC has a switch fluorescence ratio of 1.12.
For CCGTGTTGGG, the switch fluorescence ratio was 1.03.
CCGTTCCTAG showed a switch fluorescence ratio of 1.09.
For CCGTTGCGCT, the switch fluorescence ratio was 1.21.
For CCGTTGCTTC, the switch fluorescence ratio was 1.71.
Work on CCGTTGGCGG yielded a switch fluorescence ratio of 0.975.
For CCGTTGTTGC, the switch fluorescence ratio was 1.18.
CCGTTTTAAG showed a switch fluorescence ratio of 0.973.
CCGTTTTACA was tested, and the switch fluorescence ratio was 1.13.
With CCTAAATTT the switch fluorescence ratio was 0.975.
For CCTAACTTCG, the switch fluorescence ratio was 1.26.
For CCTAAGCAGC, the switch fluorescence ratio was 2.53.
CCTAAGTATT showed a switch fluorescence ratio of 1.
Work on CCTACATGG yielded a switch fluorescence ratio of 0.925.
With CCTACCTAAT the switch fluorescence ratio was 1.7.
For CCTACGTTG, the switch fluorescence ratio was 2.25.
CCTACTGGTC was tested, and the switch fluorescence ratio was 1.01.
With CCTAGAGAAA the switch fluorescence ratio was 1.02.
With CCTAGATAAG the switch fluorescence ratio was 0.964.
In the case of CCTAGCGGTA, the switch fluorescence ratio is reported as 1.34.
CCTAGGAGGA gave a switch fluorescence ratio of 0.992.
With CCTAGGATCG the switch fluorescence ratio was 1.02.
Sequence CCTAGGGCTT has a switch fluorescence ratio of 1.05.
CCTAGTCGG gave a switch fluorescence ratio of 0.983.
For CCTAGTTATA, the switch fluorescence ratio was 1.06.
CCTATAGTCA gave a switch fluorescence ratio of 1.07.
For CCTATCAGTG, the switch fluorescence ratio was 1.08.
In the case of CCTATCGATT, the switch fluorescence ratio is reported as 1.03.
In the case of CCTATGCATG, the switch fluorescence ratio is reported as 1.78.
In the case of CCTATGGAAT, the switch fluorescence ratio is reported as 1.35.
With CCTCACGGGT the switch fluorescence ratio was 1.27.
CCTCATGGGG showed a switch fluorescence ratio of 1.66.
CCTCCCCAGC showed a switch fluorescence ratio of 2.55.
CCTCCCCCTC was tested, and the switch fluorescence ratio was 4.21.
Work on CCTCCTAAGG yielded a switch fluorescence ratio of 1.89.
Work on CCTCCTTCAT yielded a switch fluorescence ratio of 2.93.
With CCTCGACCAT the switch fluorescence ratio was 1.45.
CCTCGATCGG was tested, and the switch fluorescence ratio was 0.993.
For CCTCGTGGAC, the switch fluorescence ratio was 4.37.
Sequence CCTCGTTCCC has a switch fluorescence ratio of 1.82.
With CCTCTATGAC the switch fluorescence ratio was 3.54.
CCTCTTAGAG was tested, and the switch fluorescence ratio was 1.09.
CCTGAAAGGA showed a switch fluorescence ratio of 1.01.
With CCTGAAATC the switch fluorescence ratio was 1.27.
Work on CCTGAAGCGC yielded a switch fluorescence ratio of 1.21.
Sequence CCTGAATCAA has a switch fluorescence ratio of 1.07.
CCTGACACT showed a switch fluorescence ratio of 1.01.
CCTGACAGC gave a switch fluorescence ratio of 1.22.
CCTGATATCT gave a switch fluorescence ratio of 0.995.
Work on CCTGCCGTGC yielded a switch fluorescence ratio of 1.58.
With CCTGCTTTT the switch fluorescence ratio was 1.01.
In the case of CCTGGATTGG, the switch fluorescence ratio is reported as 0.968.
For CCTGGCCAAG, the switch fluorescence ratio was 1.06.
For CCTGGCCATA, the switch fluorescence ratio was 1.22.
CCTGGCCTGT was tested, and the switch fluorescence ratio was 0.972.
CCTGGGCGTA was tested, and the switch fluorescence ratio was 1.07.
In the case of CCTGGGCTCC, the switch fluorescence ratio is reported as 1.22.
